# Test results reported in the supplement of paper PMC3334620.
# Over roughly 33,000 sequences, “E-score (-0.5 to 0.5)” has its median near -0.036; the highest 2% begin near 0.37. The list shows a part of the results.
# Target: T1, Yer064c (UniProt P40041)
# T1 sequence: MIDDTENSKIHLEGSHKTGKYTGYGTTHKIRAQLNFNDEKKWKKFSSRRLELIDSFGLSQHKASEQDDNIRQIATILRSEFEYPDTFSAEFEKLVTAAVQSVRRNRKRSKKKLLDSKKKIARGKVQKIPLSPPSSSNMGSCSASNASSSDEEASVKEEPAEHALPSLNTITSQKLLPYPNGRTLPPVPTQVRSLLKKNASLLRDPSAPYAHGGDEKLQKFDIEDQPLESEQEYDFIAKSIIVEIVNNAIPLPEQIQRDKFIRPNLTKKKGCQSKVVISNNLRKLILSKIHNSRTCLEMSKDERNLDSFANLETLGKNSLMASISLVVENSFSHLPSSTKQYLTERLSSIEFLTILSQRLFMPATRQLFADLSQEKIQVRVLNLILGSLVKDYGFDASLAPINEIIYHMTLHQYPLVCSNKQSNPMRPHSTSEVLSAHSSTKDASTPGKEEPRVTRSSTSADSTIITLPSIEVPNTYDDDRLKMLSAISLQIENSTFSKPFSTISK
# Test: PBM E-score (8-mer binding enrichment) (E-score (-0.5 to 0.5)); higher = stronger / more preferred TF binding; most listed sequences are background and not binding sites
# Settings: protein concentration: 200 nM; construct: GST-full length
# Method: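 Universal 'all 10-mer' protein binding microarrays (Agilent AMADID 015681) probed with GST-tagged S. cerevisiae TFs (full-length or DBD) made by in vitro transcription/translation (PURExpress), about 100-200 nM. Bound TF was detected with fluorescent anti-GST. Each ungapped 8-mer (which stands for itself and its reverse complement) is scored by the PBM enrichment score (E-score), a modified Wilcoxon-Mann-Whitney statistic from -0.5 to +0.5, computed with the Universal PBM Analysis Suite. Scale: above 0.35 generally sequence-specific binding.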
row,Sequence,PBM E-score
1,GGGTACAC,-0.038
2,GCGCGTGA,-0.00868
3,AAAACCAC,-0.108
4,GACGCTTA,-0.0504
5,CTCCATAC,-0.0362
6,ACACTAGG,0.121
7,GAAGCTCC,-0.303
8,CATACAGC,-0.193
9,CCCAAGCA,-0.123
10,GCTCCAGC,-0.283
11,GGGAGCAA,-0.0695
12,AGTCGTAA,0.378
13,GCCACGGC,-0.283
14,GCCGGAAA,-0.0684
15,CCCGTATC,-0.298
16,CTAAGGAG,-0.0683
17,TAGTCACA,0.478
18,GGTTGCAC,0.0309
19,GAGCCTCA,-0.141
20,GAATCTAA,0.0549
21,AGCCACTG,0.202
22,CATCCTAC,0.00501
23,AAAGGAAT,0.00897
24,GATAGGGC,-0.227
25,GCGATTTA,-0.11

row,Sequence,PBM E-score
1,AGCTGGCC,-0.208
2,CCCCCGAA,-0.0804
3,CTGGTTGC,-0.0671
4,GGTGGTTA,0.105
5,CAGTAGAC,0.0603
6,GAATTAAC,0.0654
7,AACACAGA,0.189
8,CACGGCGC,0.0195
9,ACGGCTAT,-0.24
10,AAAATTGG,-0.165
11,GGGCTCGA,-0.181
12,CCGTTGTC,-0.0952
13,AAAGTCGA,0.00478
14,GAGCACGC,-0.163
15,ACCGTCTA,-0.148
16,AATCATAC,0.451
17,AACACGCT,-0.129
18,CTGTGTCC,-0.0309
19,CTTTTCTC,0.0732
20,ACTCTAGC,0.109
21,AAGATCAG,0.109
22,ACTCGGTA,0.142
23,TAGCCCTA,-0.205
24,CCTATTCG,-0.157
25,CGCGCAGC,-0.0144

row,Sequence,PBM E-score
1,CTCTGATA,0.162
2,CAAGTCTA,-0.0232
3,TAGGGCGA,0.0759
4,CCTGGTCC,-0.35
5,TAATGAGA,0.114
6,CCCTCCGA,-0.174
7,AGTGATTA,0.4
8,AATCTGAC,0.23
9,CATACTTA,0.137
10,GGCTCTCA,-0.0821
11,CGACTATC,0.359
12,ATAGAAAT,0.0519
13,ATCCCCAA,-0.139
14,AGGGTGGA,-0.00356
15,ACTTACGA,0.149
16,ATAACCTC,-0.267
17,CAGTGTAG,0.14
18,ATAGTATG,0.015
19,CACCCGCC,0.0896
20,ACCTCAAA,-0.116
21,CCCTGGCA,-0.272
22,TAGGAGGA,0.076
23,GAAAAACA,0.025
24,CGGGAAGC,-0.234
25,GGAACTAC,-0.143

row,Sequence,PBM E-score
1,CTGGCGCA,-0.219
2,GCTTTGCA,-0.0407
3,AAACCGGA,-0.0877
4,AACCTTTA,0.0157
5,CCGTCCTC,-0.281
6,CTTACGGC,-0.189
7,AACACCCC,-0.0593
8,CTTTTAGA,0.124
9,GTGCCCAC,-0.23
10,CCAAGTAA,0.043
11,GACACAGC,0.0285
12,CCCCCGCC,-0.196
13,GACGAGTA,0.178
14,AGAGTTAT,0.038
15,ACGTCTCT,-0.16
16,AACGCTAG,0.033
17,CCATCATC,-0.01
18,CGATGTCA,-0.0638
19,AGAACGAG,-0.0266
20,TCCAGGCA,0.0611
21,ATATCAAC,0.0316
22,ATATATAT,-0.111
23,GCTCACAA,0.0192
24,CTAGGCTC,-0.262
25,ACCGCGTG,-0.183

row,Sequence,PBM E-score
1,CGTCCAAC,-0.0203
2,GTCCCGAA,-0.134
3,AAGACACA,0.0498
4,ACCGGGTA,-0.259
5,AAATATCT,0.0638
6,CAGCATGA,0.267
7,AGTCGCAG,0.367
8,TCCTACAA,-0.0166
9,GGTTGGAA,-0.31
10,ACCAGGCT,-0.143
11,GGCCACTA,-0.212
12,CAACCCAA,-0.0252
13,GCCCCGTA,-0.213
14,TGCCCACA,-0.106
15,ATGAGTAG,0.308
16,CGAGACAG,0.0985
17,ACGTTGTC,-0.226
18,AATAAACT,-0.0363
19,GCCCTAGA,-0.316
20,CATGAGCG,0.0747
21,GACCTATC,-0.215
22,GAAAGTTA,0.137
23,AAGCACGC,-0.0139
24,ATGGTCCG,-0.102
25,CCCCCCGA,0.0138

row,Sequence,PBM E-score
1,ACATTTCG,-0.187
2,GTCCTGCA,0.0274
3,CAAGAAAC,0.0684
4,CGGTGTTA,0.152
5,ATGCGGGC,-0.206
6,ACATCAGT,0.094
7,ATGCACGC,-0.0794
8,CGTACAAC,-0.082
9,GATCGCCC,-0.217
10,ACTAGGTC,0.109
11,TCTTATCA,0.118
12,ATTACCCA,0.232
13,CGATTTAC,-0.156
14,AATGTTTA,0.12
15,CGACGGCC,-0.258
16,ACGAGCCG,0.0295
17,ACAAGCTA,-0.124
18,AGATTGGG,-0.00212
19,CCTTCACC,-0.171
20,TGAATTAA,0.14
21,ACGGGGTG,-0.106
22,AGGAATTC,-0.259
23,AAAACGCT,-0.156
24,CAACTATA,0.157
25,ACCGTCCA,-0.192

row,Sequence,PBM E-score
1,CACCGCGA,-0.106
2,CAACGGTG,-0.106
3,ATGCAGCA,-0.0338
4,AAAATTTC,-0.25
5,ACGTCAAT,-0.0768
6,AACGGTCG,-0.0839
7,CCTCGGCG,-0.139
8,AGGAGCCC,-0.156
9,AAGTCGAC,0.169
10,TGGGCTAA,-0.0729
11,AAAAAAAG,0.122
12,AAAACACA,0.0169
13,CCTCAGTC,0.326
14,AGGGCGCG,-0.182
15,AGCAATTC,-0.128
16,AAATGCTC,-0.141
17,CTTCTTAA,0.0509
18,CTTCAACA,0.11
19,GATGAAAA,-0.134
20,CGCCCGAA,-0.17
21,AAACTCAG,0.0269
22,CCACCATC,-0.033
